# The full ranking holds about 2,900 compounds; the median of “NF-kB SEAP reporter activity, fold change vs agonist alone” is about 0.99, and the highest 2% start at about 2.6. This is one part of the list.
# How the values were obtained:
# [1] = tested on: RAW-Dual; test: NF-kB SEAP reporter activity, fold change vs agonist alone; higher = enhanced NF-kB activity
# In short: (§1)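 Library stock was pin-tooled at 50 nL into 384-well plates of RAW-Dual macrophages (50,000 cells/well, DMEM), followed 1 h later by a PRR agonist, and the cells were kept at 37 °C, 5% CO2. Supernatant collected after 20 hours was read for IRF by QuantiLuc luminescence and for NF-κB by QuantiBlue absorbance at 620 nm. Reporter activity is fold change over agonist-alone wells, and a well counted as cytotoxic when its IncuCyte confluency was below 70% of agonist controls in both mask sets.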
# [2] = tested on: RAW-Dual; test: NF-kB SEAP reporter activity, fold change vs agonist alone; cytotoxicity flag (confluency mask): cytotoxic (confluency <70% of control); higher = enhanced NF-kB activity
# In short: as §1
# [3] = tested on: RAW-Dual; test: NF-kB SEAP reporter activity, fold change vs agonist alone; cytotoxicity flag (confluency mask): not cytotoxic; higher = enhanced NF-kB activity
# In short: as §1
# [4] = library stock concentration (final ~1000-fold dilution): 10 mM, cytotoxicity flag (confluency mask): cytotoxic (confluency <70% of control), agonist: Imiquimod (TLR7) […]
# [5] = library stock concentration (final ~1000-fold dilution): 10 mM, cytotoxicity flag (confluency mask): cytotoxic (confluency <70% of control), agonist: MPLA (TLR4) […]
# [6] = agonist: ODN 1826 (TLR9) 0.5 ug/mL
# [7] = agonist: Pam2CSK4 (TLR2/6) 0.1 ug/mL
# [8] = agonist: Pam3CSK4 (TLR2/1) 0.1 ug/mL
# [9] = library stock concentration (final ~1000-fold dilution): 10 mM water, cytotoxicity flag (confluency mask): not cytotoxic, agonist: Imiquimod (TLR7) […]
# [10] = library stock concentration (final ~1000-fold dilution): 10 mM water, cytotoxicity flag (confluency mask): not cytotoxic, agonist: MPLA (TLR4) […]
# [11] = library stock concentration (final ~1000-fold dilution): 10 mM, cytotoxicity flag (confluency mask): not cytotoxic, agonist: Imiquimod (TLR7) […]
# [12] = library stock concentration (final ~1000-fold dilution): 10 mM, cytotoxicity flag (confluency mask): not cytotoxic, agonist: MPLA (TLR4) […]
compound,measurement,setting,value
CN1CCN(c2nc(C3=C(c4c[nH]c5ccccc45)C(=O)NC3=O)c3ccccc3n2)CC1,NF-kB SEAP reporter activity,[1]; [4],2.99
same,NF-kB SEAP reporter activity,[1]; [5],2.19
CN1CCN(c2nc(C3=C(c4c[nH]c5ccccc45)C(=O)NC3=O)c3ccccc3n2)CC1 (library stock concentration (final ~1000-fold dilution): 10 mM),NF-kB SEAP reporter activity,[2]; agonist: LPS (TLR4) 0.1 ug/mL,2.03
same,NF-kB SEAP reporter activity,[2]; [6],1.29
same,NF-kB SEAP reporter activity,[2]; [7],1.84
same,NF-kB SEAP reporter activity,[2]; [8],3.14
COc1cc2ncnc(Nc3ccc(F)c(Cl)c3)c2cc1OCCCN1CCOCC1,NF-kB SEAP reporter activity,[1]; [4],2.14
same,NF-kB SEAP reporter activity,[1]; [5],1.5
COc1cc2ncnc(Nc3ccc(F)c(Cl)c3)c2cc1OCCCN1CCOCC1 (library stock concentration (final ~1000-fold dilution): 10 mM),NF-kB SEAP reporter activity,[2]; agonist: LPS (TLR4) 0.1 ug/mL,1.67
same,NF-kB SEAP reporter activity,[2]; [6],2.23
same,NF-kB SEAP reporter activity,[2]; [7],1.51
same,NF-kB SEAP reporter activity,[2]; [8],1.85
C(#Cc1nc2ncccc2nc1OCCN1CCCC1)c1ccccc1 (library stock concentration (final ~1000-fold dilution): 10 mM),NF-kB SEAP reporter activity,[2]; agonist: LPS (TLR4) 0.1 ug/mL,0.216
same,NF-kB SEAP reporter activity,[2]; [6],0.181
same,NF-kB SEAP reporter activity,[2]; [7],0.0729
same,NF-kB SEAP reporter activity,[2]; [8],0.135
C(#Cc1nc2ncccc2nc1OCCN1CCCC1)c1ccccc1,NF-kB SEAP reporter activity,[1]; [4],0.217
same,NF-kB SEAP reporter activity,[1]; [5],0.232
N=C(N)NCCCC(N)C(=O)NC(CCCNC(=N)N)C(=O)NC(CCCNC(=N)N)C(=O)NC(CCCNC(=N)N)C(=O)NC(CCCNC(=N)N)C(=O)NC(CCCNC(=N)N)C(=O)NC(CCCNC(=N)N)C(=O)NC(CCCNC(=N)N)C(=O)NC(CCCNC(=N)N)C(=O)NC(CS)C(=O)NC(CCC(N)=O)C(=O)NC(CS)C(=O)NC(CCCNC(=N)N)C(=O)NC(CCCNC(=N)N)C(=O)NC(CCCCN)C(=O)NC(CC(N)=O)C(=O)O (stereo unspecified) (library stock concentration (final ~1000-fold dilution): 10 mM water),NF-kB SEAP reporter activity,[3]; agonist: LPS (TLR4) 0.1 ug/mL,1.4
same,NF-kB SEAP reporter activity,[3]; [6],1.36
same,NF-kB SEAP reporter activity,[3]; [7],1.05
same,NF-kB SEAP reporter activity,[3]; [8],1.16
N=C(N)NCCCC(N)C(=O)NC(CCCNC(=N)N)C(=O)NC(CCCNC(=N)N)C(=O)NC(CCCNC(=N)N)C(=O)NC(CCCNC(=N)N)C(=O)NC(CCCNC(=N)N)C(=O)NC(CCCNC(=N)N)C(=O)NC(CCCNC(=N)N)C(=O)NC(CCCNC(=N)N)C(=O)NC(CS)C(=O)NC(CCC(N)=O)C(=O)NC(CS)C(=O)NC(CCCNC(=N)N)C(=O)NC(CCCNC(=N)N)C(=O)NC(CCCCN)C(=O)NC(CC(N)=O)C(=O)O (stereo unspecified),NF-kB SEAP reporter activity,[1]; [9],0.51
same,NF-kB SEAP reporter activity,[1]; [10],0.651
CCC(C)CC(C)CCCCCCCCC(=O)NC1CC(O)C(NCCN)NC(=O)C2C(O)CCN2C(=O)C(C(O)CCN)NC(=O)C(C(O)C(O)c2ccc(O)cc2)NC(=O)C2CC(O)CN2C(=O)C(C(C)O)NC1=O (stereo unspecified) (library stock concentration (final ~1000-fold dilution): 10 mM water),NF-kB SEAP reporter activity,[3]; agonist: LPS (TLR4) 0.1 ug/mL,1.29
same,NF-kB SEAP reporter activity,[3]; [6],1.08
same,NF-kB SEAP reporter activity,[3]; [7],1.09
same,NF-kB SEAP reporter activity,[3]; [8],0.968
CCC(C)CC(C)CCCCCCCCC(=O)NC1CC(O)C(NCCN)NC(=O)C2C(O)CCN2C(=O)C(C(O)CCN)NC(=O)C(C(O)C(O)c2ccc(O)cc2)NC(=O)C2CC(O)CN2C(=O)C(C(C)O)NC1=O (stereo unspecified),NF-kB SEAP reporter activity,[1]; [9],0.901
same,NF-kB SEAP reporter activity,[1]; [10],0.866
CC(=O)ON=C1C(c2c(O)[nH]c3cc(Br)ccc23)=Nc2ccccc21 (library stock concentration (final ~1000-fold dilution): 10 mM),NF-kB SEAP reporter activity,[3]; agonist: LPS (TLR4) 0.1 ug/mL,3.28
same,NF-kB SEAP reporter activity,[3]; [6],1.19
same,NF-kB SEAP reporter activity,[3]; [7],1.55
same,NF-kB SEAP reporter activity,[3]; [8],1.41
CC(=O)ON=C1C(c2c(O)[nH]c3cc(Br)ccc23)=Nc2ccccc21,NF-kB SEAP reporter activity,[1]; [11],1.07
same,NF-kB SEAP reporter activity,[1]; [12],1.48
CC(C)Cc1ccc(C(C)C(=O)O)cc1 (stereo unspecified),NF-kB SEAP reporter activity,[1]; [11],0.911
same,NF-kB SEAP reporter activity,[1]; [12],1.06
CC(C)Cc1ccc(C(C)C(=O)O)cc1 (stereo unspecified) (library stock concentration (final ~1000-fold dilution): 10 mM),NF-kB SEAP reporter activity,[3]; agonist: LPS (TLR4) 0.1 ug/mL,0.987
same,NF-kB SEAP reporter activity,[3]; [6],0.995
same,NF-kB SEAP reporter activity,[3]; [7],1.08
same,NF-kB SEAP reporter activity,[3]; [8],1.15
CN1CC2c3ccccc3Oc3ccc(Cl)cc3C2C1.O=C(O)/C=C\C(=O)O (stereo unspecified),NF-kB SEAP reporter activity,[1]; [4],1.84
same,NF-kB SEAP reporter activity,[1]; [5],1.38
CN1CC2c3ccccc3Oc3ccc(Cl)cc3C2C1.O=C(O)/C=C\C(=O)O (stereo unspecified) (library stock concentration (final ~1000-fold dilution): 10 mM),NF-kB SEAP reporter activity,[2]; agonist: LPS (TLR4) 0.1 ug/mL,1.4
same,NF-kB SEAP reporter activity,[2]; [6],0.37
same,NF-kB SEAP reporter activity,[2]; [7],0.801
same,NF-kB SEAP reporter activity,[2]; [8],0.93
COc1ccnc(CS(=O)c2nc3ccc(OC(F)F)cc3[nH]2)c1OC (stereo unspecified),NF-kB SEAP reporter activity,[1]; [11],0.935
same,NF-kB SEAP reporter activity,[1]; [12],0.878
COc1ccnc(CS(=O)c2nc3ccc(OC(F)F)cc3[nH]2)c1OC (stereo unspecified) (library stock concentration (final ~1000-fold dilution): 10 mM),NF-kB SEAP reporter activity,[3]; agonist: LPS (TLR4) 0.1 ug/mL,0.823
same,NF-kB SEAP reporter activity,[3]; [6],0.903
same,NF-kB SEAP reporter activity,[3]; [7],0.686
same,NF-kB SEAP reporter activity,[3]; [8],0.908
COc1cccc(C=NCCN=Cc2cccc(OC)c2[O-])c1[O-].[Cl-].[Mn+2] (library stock concentration (final ~1000-fold dilution): 10 mM),NF-kB SEAP reporter activity,[3]; agonist: LPS (TLR4) 0.1 ug/mL,0.702
same,NF-kB SEAP reporter activity,[3]; [6],0.185
same,NF-kB SEAP reporter activity,[3]; [7],0.791
same,NF-kB SEAP reporter activity,[3]; [8],0.479
COc1cccc(C=NCCN=Cc2cccc(OC)c2[O-])c1[O-].[Cl-].[Mn+2],NF-kB SEAP reporter activity,[1]; [11],0.261
same,NF-kB SEAP reporter activity,[1]; [12],0.39
Cc1cc(C(=O)C2=C(O)C(=O)N(CCCN3CCOCC3)C2c2ccncc2)ccc1OCc1ccccc1 (stereo unspecified),NF-kB SEAP reporter activity,[1]; [11],0.934
same,NF-kB SEAP reporter activity,[1]; [12],1.01
Cc1cc(C(=O)C2=C(O)C(=O)N(CCCN3CCOCC3)C2c2ccncc2)ccc1OCc1ccccc1 (stereo unspecified) (library stock concentration (final ~1000-fold dilution): 10 mM),NF-kB SEAP reporter activity,[3]; agonist: LPS (TLR4) 0.1 ug/mL,1.02
same,NF-kB SEAP reporter activity,[3]; [6],0.972
same,NF-kB SEAP reporter activity,[3]; [7],1.06
same,NF-kB SEAP reporter activity,[3]; [8],0.825
